“And” between values parts separate entries of the source, which are not always exact repeats. Identical values can stand only once.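 Where inhibition never reached the appropriate level, the endpoint shown equals the highest concentration tested. Otherwise, values were interpolated linearly from a five-concentration, 48-hour dose response in 96-well plates. At the GI50, growth is halved. The concentration for full growth arrest is given as TGI.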

The test system of this test is NCI-H322M lung. Briefly: NCI tumour cell line growth inhibition, 48 h.
On to `C#CC1(O)C(COP(=O)(O)OC(COCCCCCCCCCCCCCCCCCC)COP(=O)(O)OCC2OC(n3cc(F)c(=O)[nH]c3=O)CC2O)OC(n2ccc(N)nc2=O)C1O` (stereo unspecified), for which the TGI was 17.4 µM and 11 µM.

In the case of `COc1cc(-c2cc(-c3ccccc3)nc(-c3c(OC)ccc4c(C)cc(=O)oc34)c2)cc(OC)c1OC`, the TGI is over 100 µM.

With `Nc1ccc2c(SCc3ccc([N+](=O)[O-])cc3)c3ccccc3nc2c1`, the TGI worked out at 60.9 µM.

`Cc1ccc(C(CC(=O)c2ccccc2)C2C(=O)NC(=O)NC2=O)cc1` (stereo unspecified): the GI50 is over 100 µM and the TGI was over 100 µM.

Take `CC(C)C1=CC23CCC4C(C)(C(=O)O)CCCC4(C)C2CC1C1C(=O)N(c2ccccc2N2C(=O)C4C5CC6C7(C)CCCC(C)(C(=O)O)C7CCC6(C=C5C(C)C)C4C2=O)C(=O)C13` (stereo unspecified): the TGI amounted to 10.8 µM.

For the molecule `O=C(C[n+]1ccc2ccccc2c1)c1ccc2ccc3ccccc3c2c1`, the TGI came out at 17.4 µM.

`COc1ccc(C(=O)c2sc(Nc3ccc(Cl)cc3)nc2N)cc1` returned a TGI of over 88.8 µM.

In turn, `C[C@]12CCC(=O)C=C1CC[C@@H]1C2CC[C@]2(C)Nc3c(cnn3-c3ccccc3)CC12` (stereo partly specified) came in with a TGI of over 100 µM.

The molecule `COc1ccc(-n2cnc3c2NC(C)(C)N=C3C(N)=O)c(OC)c1` came in with a TGI of over 100 µM.

Take `CC(C)CCCC(C)[C@H]1CCC2[C@@H]3CCC4Nc5nocc5C[C@]4(C)C3CC[C@@]21C` (stereo partly specified): the TGI amounted to 92.4 µM.

Consider `COc1ccc(CNC(=O)NCn2cc(-c3ccccc3)nn2)cc1`, for which the TGI is over 100 µM.

For `NC(=O)c1cc2ccc(O)cc2oc1=Nc1ccccc1`, the TGI was over 100 µM.

Take `O=S(Nc1ccccc1)c1cccc(Cl)c1` (stereo unspecified): the TGI is over 100 µM.

`CC1OC(n2c3ccccc3c3c4c(c5c6ccccc6[nH]c5c32)C(=O)N(CCN[C@@H]2CCC[C@H]2N)C4=O)CC(O)C1O` (stereo partly specified): the GI50 is 1.99 µM and the TGI was 8.73 µM.

In turn, `COc1ccc(C2CC(C)(O)Oc3cc4c(cc32)OCO4)cc1` (stereo unspecified) showed a TGI of over 100 µM.

For the molecule `CC(C)=CCC/C(=C/CC/C(=C\CCc1ccoc1)C(=O)O)C(=O)O`, the TGI is over 100 µM.

The molecule `CC[C@@H]1CC[C@@H]2[C@H](CC[C@]3(C)[C@@H](OS(=O)(=O)c4ccc(C)cc4)CC[C@@H]23)[C@H]1COS(=O)(=O)c1ccc(C)cc1` registered a TGI of over 100 µM.

The molecule `O=C(O)C1C2CCC(O2)C1C(=O)Nc1cccc2cccnc12` (stereo unspecified) yielded a TGI of over 100 µM.

In the case of `CC(=O)OCC1OC(OC2CC3C(C)(C)C(OC(C)=O)CC[C@]3(C)C3CCC45CC4(CCC5[C@@H](C)C[C@H](O)C(O)C(C)(C)O)[C@]23C)C(O)C(O)C1O` (stereo partly specified), the TGI is over 10 µM.

In turn, `CN(C)CCCNc1ccc([N+](=O)[O-])c2nc3ccccc3c(N)c12` returned a TGI of 1.89 µM.

The molecule `COC(=O)c1ccccc1OCc1cc(=O)oc2ccc(C)cc12` had a TGI of over 100 µM.

For the molecule `CC(C)CC(NC(=O)OC(C)(C)C)C(=O)Nc1ccc(Nc2nc(F)nc(-c3c4ccccc4c4n3CCS4)n2)cc1` (stereo unspecified), the TGI is 50.3 µM.

With `CN[C@H](C#Cc1c(F)ccc2c1/C(=C/c1[nH]ccc1OC)C(=O)N2)CO`, the GI50 was 0.659 µM and the TGI worked out at 5.53 µM.

In turn, `c1ccc(CN2CCC3(CC2)SSC2(CCN(Cc4ccccc4)CC2)S3)cc1` displayed a TGI of over 100 µM.

With `CNc1ccc2c(c1)[C@@]1(C)c3ccccc3[C@@H](C2)N1C`, the TGI was over 100 µM.

Take `COc1cc(Nc2c(C#N)cnc3cc(OCCCN4CCN(C)CC4)c(OC)cc23)c(Cl)cc1Cl`: the GI50 was 0.395 µM and the TGI came out at 9.19 µM.

In the case of `O=c1oc(Cl)c(Cl)c2ccccc12`, the GI50 is over 100 µM and the TGI was over 100 µM.

As for `NC(=O)c1c(NC(=O)c2ccccn2)sc2c1CCC(=O)C2`, the GI50 is over 100 µM and the TGI was over 100 µM.

Molecule `Cc1cc(N(CCC#N)CCC#N)ccc1/C(N=Nc1ccc(C(=O)O)cc1)=N\NC(=O)c1cc(Cl)ccc1O` came in with a TGI of 95 µM.

As to `C(=N\NC1=NCCN1)/c1ccc(-c2cn3cc(/C=N/NC4=NCCN4)ccc3n2)cc1`, the TGI was over 70.8 µM.

Consider `c1ccc(C(c2ccccc2)c2cccnc2)cc1`, for which the TGI is over 100 µM.

In turn, `CC(=O)O[C@H]1[C@@H]2OC(=O)[C@@](O)(CC3CCCO3)[C@@H]2CC(=O)[C@](C)(O)CC/C=C(\C)CCC[C@@H]1C` (stereo partly specified) registered a TGI of over 100 µM.

The molecule `CCOC(=O)/C=C/n1c2ccccc2c(=O)c2ccccc21` registered a TGI of over 100 µM.

In turn, `Cc1ccc([N+](=O)[O-])cc1NC(=O)/C(=N/NC(=S)NN)C1SC(=S)NC1=O` (stereo unspecified) showed a TGI of over 100 µM.

With `CCOC(=O)c1cc2c(n1Cc1cccc(OC)c1)-c1oncc1CCC2`, the GI50 is 7.94 µM and the TGI was over 100 µM.

In the case of `CN1CCN(CCOc2ccc(-c3cnc4c(-c5ccc(C(F)(F)F)cc5)cnn4c3)cc2)CC1`, the GI50 was 1.63 µM and the TGI was 3 µM.

On to `CN(C)C(=S)/N=c1\ssc(=S)n1Cc1cccnc1`, for which the TGI is over 100 µM.

`O=C(O)C1OC1(c1cccc(Cl)c1)c1ccccc1Cl` (stereo unspecified) came in with a TGI of over 100 µM.

`CCN(CC(=O)O)C(=O)c1cccnc1` showed a TGI of over 100 µM.

Consider `CCOC(=O)c1c2c(n(Cc3ccc(Cl)cc3Cl)c1C)-c1nc[nH]c1C(=O)C2=O`, for which the GI50 was 15.6 µM and the TGI came to 29.9 µM.

`COc1cc2c(cc1OC)C(=O)/C(=C/c1ccc(Cl)cc1)CC2`: the TGI was over 10 µM.

As for `CN1c2ccccc2N(C(=O)c2ccc(Cl)cc2)C(CC(=O)O)c2cccn21` (stereo unspecified), the TGI is over 100 µM.

Molecule `O=C(O)c1cc2ccc3ccccc3c2oc1=O` came in with a TGI of over 100 µM.

Turning to `COc1cc2c(cc1O)CC[C@@H]1[C@@H]2CC[C@]2(C)[C@@H](OCCN(C)C)CC[C@@H]12`, the GI50 is 0.633 µM and the TGI amounted to 5.44 µM.

As for `COc1cc2ccccc2oc1=O`, the TGI is over 100 µM.

Consider `O=[N+]([O-])c1ccc2c(c1)Cc1cc(N=Cc3ccc4c(c3)OCO4)ccc1-2`, for which the TGI is over 100 µM.

Consider `CC12CC3OC(=O)C1COC14OC5(C2C1=O)C(O)(CCC1C4CC(O)C2(O)CC=CC(=O)C12C)C(=O)OC35C` (stereo unspecified), for which the TGI is over 100 µM.

With `C[C@]12CCc3sc(NCCc4ccccc4)nc3C1=CC[C@@H]1[C@@H]2CC[C@]2(C)C(=O)CC[C@@H]12`, the GI50 was 96.9 µM and the TGI is over 100 µM.

For the molecule `S=C1N(/N=C/c2c3ccccc3cc3ccccc23)C(=Nc2ccccc2)C(=Nc2ccccc2)N1c1ccccc1`, the TGI was over 100 µM.

In turn, `Cc1ccc(/C=C/c2nnc(N/N=C/c3ccc4c(c3)OCO4)[nH]c2=O)cc1` gave a TGI of 48.1 µM.

Take `C[C@H](NC(=O)c1ccc(CNC(=O)/C=C/c2cccc(Oc3ccccc3)c2)cc1)c1ccccc1`: the TGI is over 100 µM.

Take `N#C/C(c1nc2ccccc2[nH]1)=c1\s/c(=C/c2ccc(Cl)cc2)c(=O)n1-c1ccccc1`: the TGI is over 100 µM.

Molecule `O=C(CC(=O)C1=CNc2ccccc2S1)C(=O)Nc1ccc(Cl)cc1` returned a TGI of over 50 µM.

`CNC(=O)OCc1c(CO)nc(SC)n1C` yielded a TGI of over 100 µM.

`CCCCC[C@H]1C/C=C2/C(=O)C=C[C@@H]2C/C=C\CCCC(=O)O[C@@H](CCCCC)C/C=C2/C(=O)C=C[C@@H]2C/C=C\CCCC(=O)O1`: the GI50 is 0.57 µM and the TGI stood at 1.54 µM.

Take `CCC1CN2C(=N1)c1ccccc1-c1cc(Cl)ccc12` (stereo unspecified): the GI50 was 5.25 µM and the TGI was found to be 40.2 µM.

The molecule `CN1CCN(c2ncc3c(n2)sc2c(=O)n(-c4ccccc4)cnc23)CC1` registered a TGI of over 100 µM.

As for `COc1ccc(/C=C/C(=O)c2ccc(O)c(CN3CCN(c4cc5c(cc4F)c(=O)c(C(=O)O)cn5C4CC4)CC3)c2)cc1`, the GI50 is 1.47 µM and the TGI was determined as 74.7 µM.

On to `COc1ccc(-c2nc(/C=N/Nc3cc(C)nc4ccc(Cl)cc34)c(C)o2)cc1`, for which the GI50 is 1.68 µM and the TGI was found to be 3.07 µM.

Consider `CCSc1n/c(=C\c2ccco2)c2nncn12`, for which the TGI was over 100 µM.

For `O=c1c2nc3ccccc3c(=O)n2ncn1-c1ccccc1Cl`, the TGI was over 100 µM.

`O=S(=O)(O)C(=Nc1cccc(Cc2ccccc2)c1)Nc1cccc(Cc2ccccc2)c1` returned a TGI of 32.6 µM.

`CC(=O)Oc1ccc(-c2cc3ccccc3oc2=O)cc1`: the TGI was over 100 µM.

In turn, `Cc1nn(-c2ccccc2)c(C)c1/C=N/N=C1\SCC(=O)N1c1ccccc1` came in with a TGI of 88.1 µM.

For the molecule `Clc1cc2c(cc1Cl)CC(NCCN1CCCC1)CC2` (stereo unspecified), the TGI was 29.6 µM.

On to `CN(C)CC(CC1=C(CC(CN(C)C)N(C)C)CCC1)N(C)C` (stereo unspecified), for which the TGI was over 100 µM.

As for `CN1CNc2nc(N)n(C)c(=O)c2C1`, the TGI is over 10 µM.

Take `COc1cccc(-c2nn(-c3ccccc3)cc2-c2ccnc(NCCCNC(=O)Nc3ccc(Cl)c(Cl)c3)c2)c1`: the GI50 was 2.71 µM and the TGI was determined as 14.7 µM.

For `COc1cc(OC)nc(-n2c(N)c(C#N)c3ccc([N+](=O)[O-])cc3c2=O)n1`, the TGI was over 100 µM.

Molecule `CCOC(=O)C(NC(=O)c1ccco1)(Nc1nc2ccc(OCC)cc2s1)C(F)(F)F` (stereo unspecified) gave a TGI of over 100 µM.

Values taken from PubChem BioAssay (NCI).
